Data as given in PubChem BioAssay AID1508623 (National Center for Advancing Translational Sciences (NCATS), 2021).
The campaign covered roughly 48,000 compounds. About 450 (0.94%) were called active. Inconclusive means that the source gave no clear call. Such entries were picked first, then a sample of the others. The call rests on the fitted dose curve; in most records, active means well fitted inhibition curve with a large enough effect; inconclusive means small, poorly fitted or top-dose-only effect; inactive means no such curve, though single readings can be large or run the other way. Where the call is inconclusive, the potency comes from a doubtful curve fit.

assay: Primary qHTS for Identification of Small Molecule Inhibitors of Huntingtin Promoter Activity; details: HEK293 HTT promoter firefly luciferase reporter (activity 0% = vehicle and -100% = no light), 24 h; series mostly up to 57.5 µM; further: nearly all actives have a fitted effect of over 50% in size
Procedure, shortened: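 HEK293 Fluc reporter, 2,500 cells/well, 24 h pre-culture; cpds up to 57.5 uM final, 24 h 37 degrees C; Dual-Glo, 10 min RT; normalized vehicle = 0%, zero RLU = -100%.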
Potency means the concentration at half of the fitted maximal effect; tags describe the fitted curve by direction and shape.

Row | SMILES | Potency
1 | CCc1ccc(-n2c(=O)c3cccnc3n2CC(=O)N(CC)c2cccc(C)c2)cc1 | inconclusive: 31.6 µM [inhibitor, single point]
2 | CCOc1ccc(Nc2c(S(=O)(=O)c3ccc(C)cc3)cnc3ccccc23)cc1 | inconclusive: 22.4 µM [inhibitor, partial curve, poor fit]
3 | CCc1ccc(NC(=O)CSc2nnc(-c3nonc3NC(C)=O)n2-c2ccccc2)cc1 | inconclusive: 22.4 µM [inhibitor, single point]
4 | Cc1cc(O)c(C)c(C)c1O | inactive
5 | COc1ccc(-c2cc(C)no2)cc1S(=O)(=O)Nc1cccc(C(F)(F)F)c1 | inconclusive: 22.4 µM [inhibitor, single point]
6 | CCOC(=O)[C@H](CCc1ccccc1)N[C@@H](C)C(=O)N1[C@@H](C(=O)O)C[C@H]2CCC[C@@H]21 | inconclusive: 34.3 µM [inhibitor, single point]
7 | CCCCNC(=O)c1ccc(-c2nc(CS(=O)(=O)c3ccc(C)cc3)c(C)o2)cc1 | inconclusive: 7.94 µM [inhibitor, single point]
8 | COC(=O)CNC(c1ccccc1)c1cc(Br)ccc1NC(=O)c1cc(OC)c(OC)c(OC)c1 (stereo unspecified) | inactive
9 | CC1=C(c2ccc(Cl)cc2)S(=O)(=O)N=C1N1CCN(c2cccc(C)c2)C(C)C1 (stereo unspecified) | inconclusive: 2.82 µM [inhibitor, full curve, poor fit]
10 | CNC(=O)c1ccc(NC(=O)c2nsc3ccccc23)cc1 | inconclusive: 14.1 µM [inhibitor, partial curve, poor fit]
11 | Cc1ccc(-c2csc(=Nc3ccccc3)n2CCCO)cc1 | inconclusive: 31.6 µM [inhibitor, single point]
12 | CC(=O)N(C)C1(c2ccccc2)CCN(CCC[C@]2(c3ccc(Cl)c(Cl)c3)CCCN(C(=O)c3ccccc3)C2)CC1 | inconclusive: 21.7 µM [inhibitor, partial curve, poor fit]
13 | Cc1ccc(C)c(CN2C(=O)c3ccccc3Sc3ccc(C(=O)NC4CCCC4)cc32)c1 | inconclusive: 15.8 µM [inhibitor, partial curve, poor fit]
14 | COc1ccc(NC(=O)c2c(C)oc3ccc(O)c(CN4CCCC(C)C4)c23)cc1Cl (stereo unspecified) | inconclusive: 39.8 µM [inhibitor, single point]
15 | Cc1ccc(N2CCN(C(=O)CCc3c(C)nc4ncnn4c3C)CC2)c(C)c1 | inconclusive: 14.1 µM [inhibitor, partial curve]
16 | Cc1cc(C)c(C#N)c(SCC(=O)Nc2ccccc2C#N)n1 | inactive
17 | CCS(=O)(=O)c1ncc(Cl)c(C(=O)N(Cc2ccccc2)Cc2ccco2)n1 | active: 35.5 µM
18 | COc1ccc2sc(N(Cc3cccnc3)C(=O)c3ccco3)nc2c1 | inconclusive: 15.8 µM [inhibitor, partial curve, poor fit]
19 | CCc1cccc(C)c1NC(=O)Nc1csc2c1CCCC2 | inconclusive: 39.8 µM [inhibitor, single point]
20 | CCOC(=O)c1ccc(N2C(=O)c3[nH]nc(-c4ccc(OC)cc4)c3C2c2ccc(C)cc2)cc1 (stereo unspecified) | inconclusive: 39.8 µM [inhibitor, single point]
21 | CCn1c(=O)cc(OCC(=O)NCc2ccc(F)cc2Cl)c2ccccc21 | inactive

Row | SMILES | Potency
22 | COc1cc(Nc2ncnc3onc(-c4ccc(Cl)cc4)c23)cc(OC)c1 | inconclusive: 20 µM [inhibitor, partial curve, poor fit]
23 | COc1ccc(N2CCN(C(CNS(=O)(=O)c3c(C)cc(C)cc3C)c3ccco3)CC2)cc1 (stereo unspecified) | inconclusive: 39.8 µM [inhibitor, single point]
24 | N#Cc1c(C(F)(F)F)cc(-c2cccs2)nc1SCC(=O)Nc1ccc(Cl)cc1 | inactive
25 | CCOc1ccc(C(=O)Nc2ccc(-c3nc4cc(C(C)C)ccc4o3)cc2)cc1Cl | inconclusive: 20 µM [inhibitor, partial curve]
26 | Fc1cccc(NCc2cccn2-c2nnc(N3CCOCC3)s2)c1 | inactive
27 | Cc1ccc(NCc2cccn2-c2nnc(N3CCC(C(=O)NCCc4ccccc4)CC3)s2)cc1 | inconclusive: 39.8 µM [inhibitor, single point]
28 | CCOc1ccccc1NC(=O)CN(CCc1ccccc1)S(=O)(=O)c1ccc(C)cc1 | inconclusive: 2 µM [inhibitor, partial curve, poor fit]
29 | Clc1ccc(CNc2nc3ccccc3c3nc(-c4cccnc4)nn23)cc1 | inactive
30 | COc1ccc(-c2nc(CCNC(=O)c3cccs3)cs2)cc1OC | inconclusive: 28.2 µM [inhibitor, partial curve]
31 | COc1ccccc1CNC(=O)c1cc(Sc2cccc(Cl)c2)nc2ccccc12 | inconclusive: 35.5 µM [inhibitor, single point]
32 | CCCCc1ccc(C(=O)Nc2ccc3nc(N(CC)CC)cc(C)c3c2)cc1 | inconclusive: 31.6 µM [inhibitor, partial curve]
33 | Cc1ccc2c(c1)N(C(=O)N1CCC(C(=O)NCCC3=CCCCC3)CC1)CC(C)O2 (stereo unspecified) | inconclusive: 31.6 µM [inhibitor, single point]
34 | O=C(Nc1cccc(Cl)c1)c1ccc2nc(Cc3ccccc3)oc2c1 | inconclusive: 17.8 µM [inhibitor, partial curve, poor fit]
35 | OCc1cnc(SCc2cccc(F)c2)n1Cc1ccc(F)cc1 | inactive
36 | CCOc1ccc(CCNc2ncnc3onc(-c4ccc(F)cc4)c23)cc1OCC | inconclusive: 31.6 µM [inhibitor, partial curve, poor fit]
37 | CN1c2ccc(Cl)cc2-c2nc(SCC(=O)Nc3cc(F)ccc3F)ncc2S1(=O)=O | inconclusive: 17.8 µM [inhibitor, partial curve, poor fit]
38 | CCOc1ccccc1CNC(=O)c1[nH]c2ccccc2c1Sc1ccccc1 | inconclusive: 31.6 µM [inhibitor, single point]
39 | COc1ccc(OC)c(CCNC(=O)c2ccc3[nH]c(C)c(C)c3c2)c1 | inactive
40 | Cc1ccc(C)c(N2CCN(C(=O)c3cccn3-c3nnc(N4CCCCC4)s3)CC2)c1 | inconclusive: 22.4 µM [inhibitor, partial curve]
41 | COc1ccc2cc(CNc3ccccc3)c(=O)n(CC(=O)Nc3ccc(C)cc3C)c2c1 | inactive
42 | Cc1ccc2nc(SCc3nc(-c4ccccc4C)no3)[nH]c2c1 | inconclusive: 28.2 µM [inhibitor, single point]

Row | SMILES | Potency
43 | Cc1ccc(N2CCN(C(=O)C3CCC(CNS(=O)(=O)c4ccc(Br)s4)CC3)CC2C)cc1 (stereo unspecified) | inconclusive: 1.26 µM [inhibitor, full curve, poor fit]
44 | COc1ccc(NC(=O)CSC2=Nc3ccccc3C3=NC(Cc4ccccc4)C(=O)N23)cc1Cl (stereo unspecified) | inconclusive: 31.6 µM [inhibitor, partial curve, poor fit]
45 | CC(C)(C)c1ccc(C(=O)N2CC(=O)Nc3ccc(F)cc3C2c2ccc(F)cc2)cc1 (stereo unspecified) | inconclusive: 22.4 µM [inhibitor, partial curve, poor fit]
46 | COc1cc(C2c3c(oc4ccccc4c3=O)C(=O)N2Cc2ccccc2Cl)ccc1O (stereo unspecified) | inactive
47 | COc1ccc(CCNC(=O)c2c(Nc3ccccc3C)sc(C(=O)c3ccccc3)c2N)cc1OC | inconclusive: 39.8 µM [inhibitor, partial curve, poor fit]
48 | CCCCC(=O)OCC(=O)[C@H]1[C@H](C)C[C@H]2[C@@H]3C[C@H](F)C4=CC(=O)C=C[C@]4(C)[C@@]3(F)[C@@H](O)C[C@@]21C | inactive
49 | COc1ccc(-c2nn(C)c3sc(C(=O)Nc4cc(OC)c(OC)c(OC)c4)cc23)cc1OC | inconclusive: 39.8 µM [inhibitor, single point]
50 | Cc1ccc(O)c(NC(=O)C2=CC(c3cccs3)=NS(=O)(=O)N2C)c1 | inconclusive: 28.2 µM [inhibitor, partial curve, poor fit]
51 | Cn1cc(S(=O)(=O)N2CCc3ccccc32)cc1C(=O)Nc1ccc(C(F)(F)F)cc1 | inconclusive: 31.6 µM [inhibitor, partial curve, poor fit]
52 | Cc1ccc(CNC(=O)C2CCCN(c3nn4cc(-c5ccc(C)cc5)nc4s3)C2)cc1 (stereo unspecified) | inconclusive: 1.41 µM [inhibitor, full curve]
53 | COCCn1c(SCc2ccccc2F)nc2c([nH]c3ccccc32)c1=O | inactive
54 | Cc1cccc(CNC(=O)c2ccc(Cn3c(SCc4cccc(F)c4)nc4cccnc43)cc2)c1 | inconclusive: 31.6 µM [inhibitor, single point]
55 | CCCSc1ncc(Cl)c(C(=O)Nc2ccc(S(=O)(=O)N3CCCCC3C)cc2)n1 (stereo unspecified) | inconclusive: 15.8 µM [inhibitor, partial curve, poor fit]
56 | Cc1ccccc1OCc1nnc(SCc2cc(=O)c3cc(F)ccc3[nH]2)n1C | inconclusive: 8.91 µM [inhibitor, partial curve, poor fit]
57 | COc1ccc(-c2ccc(CCC(=O)O)n2-c2ccccc2C(F)(F)F)cc1 | inactive
58 | CC[C@H](c1ccc(O)cc1)[C@@H](CC)c1ccc(O)cc1 | inactive
59 | CCOc1ccc(-c2cc(C)n3nc(C(=O)Nc4ccc(C)c(C)c4)cc3n2)cc1 | inconclusive: 35.5 µM [inhibitor, single point]
60 | CC(Oc1ccccc1)C(=O)Nc1ccccc1C(=O)OCc1cc(=O)n2nc(C3CC3)sc2n1 (stereo unspecified) | inconclusive: 3.98 µM [inhibitor, partial curve, poor fit]
61 | CCOC(=O)CN(Cc1ccccc1)C(C(=O)NC1CCCCC1)c1ccccc1 (stereo unspecified) | inconclusive: 3.98 µM [inhibitor, partial curve, poor fit]
